Reference: paper PMC5892938
This is one part of the list. At the low end of the ranking the order means little.

These sequences were tested against GST-SBP-SLBP (stem-loop binding protein) (UniProt Q14493) (assay: targeted RNA Bind-n-Seq). Settings: RBNS binding buffer: 25 mM Tris pH 7.5, 150 mM KCl, 3 mM MgCl2, 0.1% Tween, 0.5 mg/mL BSA, 1 mM DTT; 27 nM protein, 750 pM RNA pool; temperature not stated; high values mean tight binding.
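Also: DESeq read counts versus GST-SBP nonspecific binding control pulldown.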

Sequence	binding signal (log2 fold change)
GGUCACGUCUCAAUCAACUCAUUUCCAGGAGUUUUCUCCUGUAUACUCAACAGCUCGCAGUCAAG	-0.0628
GGUCACGUCUCAAUCAACUCAAUCUCAGGAGUUUGCUCCUGCUAUGUCAACAGCUCGCAGUCAAG	0.227
GGUCACGUCUCAAUCAACUCCACAGAGGGGGGGAAAACCCCUUUACCCUCAUUAUCAACAGCUCGCAGUCAAG	-0.0477
GGUCACGUCUCAAUCAACUCUUCCCCCAGGGAAAUCCCUGGCAAACUCAACAGCUCGCAGUCAAG	0.202
GGUCACGUCUCAAUCAACUCUAUCCCCAGGGAAAGCCCUGGCAUUCUCAACAGCUCGCAGUCAAG	-0.081
GGUCACGUCUCAAUCAACUCCCACGAGGGGGGGAAAACCCCUUUACCCUCCACAUCAACAGCUCGCAGUCAAG	0.0749
GGUCACGUCUCAAUCAACUCAAUCUCAGGAGUUUGCUCCUGCAAUUUCAACAGCUCGCAGUCAAG	-0.0391
GGUCACGUCUCAAUCAACUCAGUCCCAGGAGUUUACUCCUGCAUAUUCAACAGCUCGCAGUCAAG	0.00248
GGUCACGUCUCAAUCAACUCUUUCCCCAGGGAAAGCCCUGGUUUUUUCAACAGCUCGCAGUCAAG	0.101
GGUCACGUCUCAAUCAACUCUACUCCCAGGGAAAACCCUGGUAUUCUCAACAGCUCGCAGUCAAG	0.013
GGUCACGUCUCAAUCAACUCAUUCUCAGGAGUUUACUCCUGUAUUCUCAACAGCUCGCAGUCAAG	0.0676
GGUCACGUCUCAAUCAACUCAUUCCCAGGAGUUUUCUCCUGUUUUUUCAACAGCUCGCAGUCAAG	0.0221
GGUCACGUCUCAAUCAACUCCUUAGAGGGGGGGAAAACCCCUUUACCCUCAAUUUCAACAGCUCGCAGUCAAG	-0.127
GGUCACGUCUCAAUCAACUCAGUUUCCAGGGAAAGCCCUGGCUUUUUCAACAGCUCGCAGUCAAG	0.3
GGUCACGUCUCAAUCAACUCUUUCCCAGGAGUUUACUCCUGUAUUUUCAACAGCUCGCAGUCAAG	-0.0022
GGUCACGUCUCAAUCAACUCUUUCCCAGGAGUUUUCUCCUGCUAUCUCAACAGCUCGCAGUCAAG	0.0568
GGUCACGUCUCAAUCAACUCUCCUGAGGGGGGGAAAACCCCUUUACCCUCCAAAUCAACAGCUCGCAGUCAAG	-0.0371
GGUCACGUCUCAAUCAACUCUACUUCAGGAGUUUUCUCCUGUUUUCUCAACAGCUCGCAGUCAAG	-0.0434
GGUCACGUCUCAAUCAACUCAAUCCCCAGGGAAAUCCCUGGCUAAUUCAACAGCUCGCAGUCAAG	-0.221
GGUCACGUCUCAAUCAACUCAUUCCCAGGAGUUUCCUCCUGUAAUCUCAACAGCUCGCAGUCAAG	0.0845
GGUCACGUCUCAAUCAACUCACAAGAGGGGGGGAAAACCCCUUUGCCCUCGAAUUCAACAGCUCGCAGUCAAG	0.144
GGUCACGUCUCAAUCAACUCAAUUUCAGGAGUUUACUCCUGCUAUGUCAACAGCUCGCAGUCAAG	0.0954
GGUCACGUCUCAAUCAACUCAUCUUCCAGGGAAAUCCCUGGUUUAUUCAACAGCUCGCAGUCAAG	0.0547
GGUCACGUCUCAAUCAACUCAUUCCCCAGGGAAACCCCUGGUAAACUCAACAGCUCGCAGUCAAG	0.0728

Sequence	binding signal (log2 fold change)
GGUCACGUCUCAAUCAACUCUACUUCCAGGGAAAUCCCUGGCAUAUUCAACAGCUCGCAGUCAAG	0.011
GGUCACGUCUCAAUCAACUCUUCCCCCAGGGAAAACCCUGGUAAAUUCAACAGCUCGCAGUCAAG	-0.156
GGUCACGUCUCAAUCAACUCAUUUCCAGGAGUUUCCUCCUGUAUUCUCAACAGCUCGCAGUCAAG	-0.0425
GGUCACGUCUCAAUCAACUCUAACGAGGGGGGGAAAACCCCUUUGCCCUCAUCAUCAACAGCUCGCAGUCAAG	-0.206
GGUCACGUCUCAAUCAACUCUUCUCCCAGGGAAAUCCCUGGCUUUUUCAACAGCUCGCAGUCAAG	0.237
GGUCACGUCUCAAUCAACUCUAUCCCCAGGGAAAGCCCUGGCUUAUUCAACAGCUCGCAGUCAAG	-0.108
GGUCACGUCUCAAUCAACUCUUUCGCCAGGGAAAUCCCUGGGUAUUUCAACAGCUCGCAGUCAAG	-0.106
GGUCACGUCUCAAUCAACUCACAAGAGGGGGGGAAAACCCCUUUGCCCUCAUUAUCAACAGCUCGCAGUCAAG	-0.0799
GGUCACGUCUCAAUCAACUCAAUUCCAGGAGUUUGCUCCUGCAUAUUCAACAGCUCGCAGUCAAG	-0.102
GGUCACGUCUCAAUCAACUCAACAGAGGGGGGGAAAACCCCUUUACCCUCACCAUCAACAGCUCGCAGUCAAG	0.341
GGUCACGUCUCAAUCAACUCAUCGUCAGGAGUUUUCUCCUGCAUUUUCAACAGCUCGCAGUCAAG	-0.00603
GGUCACGUCUCAAUCAACUCUUCCCCCAGGGAAAGCCCUGGUAUACUCAACAGCUCGCAGUCAAG	-0.247
GGUCACGUCUCAAUCAACUCAACUCCCAGGGAAAACCCUGGUUUUUUCAACAGCUCGCAGUCAAG	-0.0702
GGUCACGUCUCAAUCAACUCAAGUCCAGGAGUUUCCUCCUGUAAUUUCAACAGCUCGCAGUCAAG	0.0973
GGUCACGUCUCAAUCAACUCACACGAGGGGGGGAAAACCCCUUUGCCCUCAAAAUCAACAGCUCGCAGUCAAG	-0.155
GGUCACGUCUCAAUCAACUCAUCCUCAGGAGUUUUCUCCUGCUAUCUCAACAGCUCGCAGUCAAG	0.166
GGUCACGUCUCAAUCAACUCUCACGAGGGGGGGAAAACCCCUUUACCCUCAUAAUCAACAGCUCGCAGUCAAG	-0.285
GGUCACGUCUCAAUCAACUCAUUCUCCAGGGAAAUCCCUGGCAUAUUCAACAGCUCGCAGUCAAG	0.256
GGUCACGUCUCAAUCAACUCAUUCGAGGGGGGGAAAACCCCUUUACCCUCAUAAUCAACAGCUCGCAGUCAAG	-0.166
GGUCACGUCUCAAUCAACUCUUCCCCAGGAGUUUACUCCUGUAUUCUCAACAGCUCGCAGUCAAG	-0.0104
GGUCACGUCUCAAUCAACUCUAUCCCAGGAGUUUACUCCUGUAUUCUCAACAGCUCGCAGUCAAG	0.0741
GGUCACGUCUCAAUCAACUCUUCCUCAGGAGUUUCCUCCUGCUAUUUCAACAGCUCGCAGUCAAG	0.0337
GGUCACGUCUCAAUCAACUCCUCCGAGGGGGGGAAAACCCCUUUACCCUCAAAUUCAACAGCUCGCAGUCAAG	-0.0179
